Values marked as one replicate rest on one cluster of the flow cell; about a third of the high ones do not repeat.
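Further: ATP exposure 15 min at 22 °C before imaging.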

This data set relates to ATP. The data set is described as follows: switch fluorescence ratio, 500 uM ATP over buffer (Cy3 cluster intensity, sum of 5 cycles each) (fold (ratio)); higher = stronger signal-on switching upon ATP binding; sequences stand for … in TCGTCGGCAGCGTCAGATGTGTATAAGAGACAGTTTTTTTTTTTTTTTTTTTTTTTTT…TC. The settings on record: aptamer strand: ATP DNA aptamer (quencher-CACCTGGGGGAGTATTGCGGAGGAAGG + anchor), 100 nM annealed; ATP concentration: 500 uM; one replicate. In short, it runs like this:
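Imaging in selection buffer was followed by imaging after 15 min with 500 uM ATP at 22 °C, for Cy3-labelled switching-strand clusters annealed to 100 nM quencher-labelled ATP aptamer on a modified Illumina MiSeq flow-cell. Five of these buffer/ATP cycles ran, separated by NaOH stripping and re-annealing. The fluorescence ratio per cluster is summed target-cycle over summed buffer-cycle Cy3 intensity, averaged per switch-domain sequence; clusters outside 100-1000 RFU were removed.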
With ACGTTTGAA, the switch fluorescence ratio worked out at 1.01. Regarding TGGTTTAAAA, the switch fluorescence ratio worked out at 0.927. With CAAAAGGTAA, the switch fluorescence ratio was found to be 0.966. In the case of GTGCTGCCCT, the switch fluorescence ratio was 1.

Take CGTGCAAGTG: the switch fluorescence ratio turned out to be 1. Take GAGTCTGCCT: the switch fluorescence ratio is 0.985. For GGTGTGGCCA, the switch fluorescence ratio was determined as 0.962. For GATCTAAAGT the value was 0.991; for TTCTCGCCGA, 1.

Take GGAACTCGGA: the switch fluorescence ratio was 1. Regarding ACTCGCGCTC, the switch fluorescence ratio stood at 3.33. For TGTAGTTAAT, the switch fluorescence ratio came out at 0.966. For the sequence TGTAATAGGA, the switch fluorescence ratio worked out at 0.964. In the case of CATAGAATGT, the switch fluorescence ratio stood at 0.993. Then AGGATGCGCT, with 0.991. As to GGGTAAGGA, the switch fluorescence ratio came out at 0.954. As to TATTGATC, the switch fluorescence ratio is 1.02. As for CGGGAACC, the switch fluorescence ratio turned out to be 1.02.

With CGGCCCGAGC, the switch fluorescence ratio was found to be 1.01. Then TCTAGGTATA, with 0.983; and TAGTAGAACA, with 1.06. For ACCGTTCGAC the value was 1.28; for GTTGGTGC, 1.08. As for CTCGAAGTAA, the switch fluorescence ratio was found to be 1.66. For the sequence TCGGGCTTTG, the switch fluorescence ratio worked out at 0.978. CTTACTTTTA: the switch fluorescence ratio is 0.988. Take CAATGAATCT: the switch fluorescence ratio amounted to 1.01. With CATCCCAGTT, the switch fluorescence ratio turned out to be 1.15.

With TAAAAAGGCT, the switch fluorescence ratio was 1.01.

On to ACCTATGTCT, for which the switch fluorescence ratio came out at 1.01. Consider GTTTGCTAAT, for which the switch fluorescence ratio was 0.987. With CATGTACACT, the switch fluorescence ratio came out at 1.04. As to TGATCACAGA, the switch fluorescence ratio is 0.949.

For the sequence CACTACCGAA, the switch fluorescence ratio was found to be 1.03. For the sequence AGAGAGAACT, the switch fluorescence ratio came to 1. For CATAGGGTGT the value was 1.03. As for CCCTAAACTT, the switch fluorescence ratio was found to be 1.02.

For the sequence AGGATTAATC, the switch fluorescence ratio stood at 0.959.

For TACGATAACG, the switch fluorescence ratio amounted to 1.08. Take ACTCCGTGTT: the switch fluorescence ratio is 2.68. For TGTGGCGAGT the value was 1.17; for TCACTGGCAC, 1.24. As for GATGTAGCTG, the switch fluorescence ratio worked out at 1.03.

Regarding ATTCCGGTA, the switch fluorescence ratio is 1.25. For the sequence ACGATAAACG, the switch fluorescence ratio amounted to 1.05. Turning to GGGACGTTTG, the switch fluorescence ratio worked out at 0.988. With TTTAGGAATA, the switch fluorescence ratio stood at 1.06.

Take ATCAGATCAT: the switch fluorescence ratio was 1.06. Then TATCCGAAAA, with 1; and CGGGACGTGA, with 1.01. For GGAATGGAGT, the switch fluorescence ratio amounted to 1. On to CAGCCAGA, for which the switch fluorescence ratio amounted to 1.06. Take GTCATCCGGC: the switch fluorescence ratio stood at 1.06. Consider CCCCTATCTA, for which the switch fluorescence ratio worked out at 1.02. As for AGACTCTGGA, the switch fluorescence ratio was 1.05. For GGCATGTTAA, the switch fluorescence ratio stood at 0.999. Consider GTCAATTCAT, for which the switch fluorescence ratio turned out to be 0.988. Consider GCTTCCTTCA, for which the switch fluorescence ratio came to 1.51. Then CAACCATAG, with 1.08.

Turning to GAGTAGTG, the switch fluorescence ratio was determined as 0.983. For the sequence GTGGAGCAA, the switch fluorescence ratio was 5.67. For TTCAATTGGG, the switch fluorescence ratio came to 1.05.

On to CATGTGTTGG, for which the switch fluorescence ratio amounted to 0.987. GCGATTCTGT: the switch fluorescence ratio was determined as 1.03.

For TAAGCGGTG, the switch fluorescence ratio amounted to 1.02. ACATATCATT: the switch fluorescence ratio was found to be 1.02. For GTTCCGATCG the value was 1.65; for CAGAATAATT, 0.996; for GCTTTAACCT, 1.66. With AATTCATTTA, the switch fluorescence ratio worked out at 0.988.

In the case of GGTTGGTCAG, the switch fluorescence ratio stood at 1.03. Take ACCAGCAG: the switch fluorescence ratio was 1.02. Turning to CGGCTGTAGA, the switch fluorescence ratio turned out to be 1.04. Consider GATGTTCTGG, for which the switch fluorescence ratio is 0.994. Regarding ACAAACGAGG, the switch fluorescence ratio was found to be 1.3. ACTGGATGGG: the switch fluorescence ratio was 1.

For the sequence ACTTCTGAA, the switch fluorescence ratio was determined as 0.964. Turning to AGGGCGATTC, the switch fluorescence ratio came out at 1.02.

GGATGTAATG: the switch fluorescence ratio was 0.975.

For the origin of these results see the supplement of paper PMC10126150.
